Data as given in the antibiotic and cytotoxicity screens of Wong et al. (2023).
This is one part of the list.

Columns and labels:
HSkMC = human skeletal muscle cells; test: cytotoxicity call (relative viability < 0.9); settings: 10 µM
HepG2 = test: cytotoxicity call (relative viability < 0.9); settings: 10 µM
S. aureus RN4220 = test: growth inhibition call (relative growth <= 0.2); settings: 50 µM

CN(C)C(=O)C[C@H]1CC[C@@H]2[C@H](COc3ccc(NS(=O)(=O)c4cccc(F)c4)cc3C(=O)N2C)O1
inactive: cytotoxicity call (HSkMC) | cytotoxicity call (HepG2) | growth inhibition call (S. aureus RN4220)

Cc1noc(C)c1NC(=O)Nc1ccc2c(c1)C(=O)N([C@H](C)CO)C[C@H](C)[C@@H](CN(C)Cc1ccc3c(c1)OCO3)OCCCC[C@H](C)O2
inactive: cytotoxicity call (HSkMC) | cytotoxicity call (HepG2) | growth inhibition call (S. aureus RN4220)

C[C@H](CO)N1C[C@H](C)[C@H](CN(C)S(=O)(=O)c2ccccc2)Oc2ccc(NC(=O)CCN3CCOCC3)cc2CC1=O
inactive: cytotoxicity call (HSkMC) | cytotoxicity call (HepG2) | growth inhibition call (S. aureus RN4220)

COC(=O)C[C@H]1CC[C@@H]2[C@H](COc3ccc(NS(=O)(=O)c4ccccc4Cl)cc3C(=O)N2C)O1
inactive: cytotoxicity call (HSkMC) | cytotoxicity call (HepG2) | growth inhibition call (S. aureus RN4220)

C[C@H]1CN([C@@H](C)CO)C(=O)c2cc(NC(=O)CCCCCC(=O)Nc3ccccc3N)ccc2O[C@H]1CN(C)Cc1ccc(-c2ccccc2)cc1
inactive: cytotoxicity call (HSkMC) | cytotoxicity call (HepG2) | growth inhibition call (S. aureus RN4220)

CCC(CCC(C)C1CCC2C3CC=C4CC(OC(C)=O)CCC4(C)C3CCC12C)C(C)C (stereo unspecified)
inactive: cytotoxicity call (HSkMC) | cytotoxicity call (HepG2) | growth inhibition call (S. aureus RN4220)

Cc1noc(C)c1NC(=O)Nc1cccc2c1O[C@H](CN(C)S(C)(=O)=O)[C@@H](C)CN([C@@H](C)CO)C2=O
inactive: cytotoxicity call (HSkMC) | cytotoxicity call (HepG2) | growth inhibition call (S. aureus RN4220)
